The record followed here is PubChem BioAssay (NCI).

The test system of this experiment is NCI-H322M lung. Briefly: inhibition of tumour cell growth, NCI panel, 48 h.

SMILES strings stand for the structures. Several values for one entry are separate records, joined by “and”; a condition that tells them apart may be missing. Equal entries are not always repeated.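 Five compound concentrations were applied to cells in 96-well plates for 48 hours; endpoints were derived by simple linear interpolation of the resulting dose-response curve. Here, GI50 denotes the concentration required for 50% inhibition of growth. TGI marks complete inhibition of growth.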 A value given as a limit tells only on which side of the number the result lay.

Compound `CCOC(=O)C(=O)Nc1c(C(C)C)cccc1C(C)C` gave a TGI greater than 100 µM.

Take `COC(=O)C1=C(C(=O)OC)SC(=C(Cl)C(=S)Sc2ccccc2N)S1`: the GI50 is 63.5 µM and the TGI was greater than 100 µM.

Compound `CC(=O)OC1[C@H]2c3cc4c(cc3CN3CCC(=C[C@@H]1O)C23)OCO4` (some centres undefined) returned a TGI greater than 100 µM.

As to `COc1ccc(CN2c3ccccc3CCc3ccccc32)cc1F`, the GI50 is 0.617 µM and the TGI was greater than 100 µM.

`N#C[C@@H]1C(n2ccc(N)nc2=O)O[C@H](CO)[C@H]1O` (some centres undefined): the GI50 is greater than 100 µM and the TGI was greater than 100 µM.

`OCC1OC(n2cnc3c(/C=C(/O)c4ccccc4)ncnc32)C(O)C1O` (centres undefined) registered a TGI greater than 100 µM.

`CC1CCN(CC(=O)N2c3ccccc3Sc3cc4ccccc4cc32)CC1` came in with a TGI greater than 100 µM.

Turning to `CN[C@@H]1C[C@H]2O[C@@](C)([C@@H]1OC)n1c3ccccc3c3c4c(c5c6ccccc6n2c5c31)C(=O)N[C@@H]4O`, the TGI amounted to 2.31 µM.

`COC1CC(OC(=O)c2ccccc2)C(OC(=O)c2ccccc2)C(C)O1` (centres undefined) showed a TGI greater than 100 µM.

With `CSC1=NS(=O)(=O)c2cc(C(=O)NN(C)C(=O)c3cc4c(cc3Cl)SC(SC)=NS4(=O)=O)c(Cl)cc2S1`, the TGI was greater than 10 µM.

In the case of `CNC(=S)N/N=C/c1ccc([N+](=O)[O-])s1`, the TGI was greater than 10 µM.

`Cc1c(NC2(C)C(=O)N(/N=C/c3ccccc3)N=C2c2ccccc2)n[nH]c1-c1ccccc1` (centres undefined) yielded a TGI greater than 100 µM.

In the case of `c1ccc2c(c1)nc1n2CCSC1`, the TGI was greater than 100 µM.

`CC(=O)c1cc2ccccc2n(O)c1=N`: the TGI was greater than 100 µM.

The compound `O=c1[nH]nc(Cc2ccccc2)n1-n1cnnc1` showed a TGI greater than 100 µM.

For `Cc1cc2c(=O)c3ccccc3[nH]c2c(C(=O)O)c1C`, the TGI was greater than 100 µM.

The compound `Cn1cnc2c(sc3nc4ccccc4n32)c1=N` had a TGI greater than 100 µM.

The compound `CCCCOCn1c(=O)[nH]c(=O)c2cc(Br)ccc21` gave a TGI greater than 100 µM.

Turning to `Cc1ccc(SC(=O)N2C(=S)NC(=NC3CCCCC3)C23CCCCC3)cc1`, the TGI is greater than 100 µM.

As to `Cc1c2c(OCCCCN3CCN(c4ncccn4)CC3)nn(C)c(=O)c2c(C)n1-c1ccccc1`, the TGI stood at 36 µM.

Consider `Nc1nc(CCC(=O)Nc2cccc(C(F)(F)F)c2)cc(-c2ccc3ccccc3c2)n1`, for which the TGI was greater than 100 µM.

As for `CC1(COS(=O)(=O)OCC2(C)COS(=O)(=O)OC2)COS(=O)(=O)OC1`, the TGI was greater than 100 µM.

The compound `C=C(C)C1CC=C(C)C2(C1)OCC(C)(C)C(C)O2` (centres undefined) registered a TGI of 57.9 µM.

For `CN(Cc1cnc2nc(N)nc(N)c2n1)c1ccc(C(=O)NC(CCC(=O)NC(P(=O)(O)O)P(=O)(O)O)C(=O)O)cc1` (centres undefined), the TGI is greater than 100 µM.

Turning to `Cc1ccc(S(=O)(=O)N=Nc2c(O)[nH]c3c(Cl)cc(Cl)cc23)cc1`, the TGI was greater than 100 µM.

In the case of `COc1cc2nc(-c3ccc(C(F)(F)F)cc3)cc(OCCCN3CCCCC3)c2cc1OC`, the GI50 was 8.7 µM and the TGI was 21.3 µM.

For the compound `O=c1[nH]c(=O)n(C2OC3COC2C3O)cc1F` (centres undefined), the TGI was greater than 100 µM.

In the case of `CSc1cc(N)ccc1N=Nc1ccc(S(N)(=O)=O)cc1`, the TGI is greater than 100 µM.

For `Cc1sc2ccccc2[n+]1CCC(=O)O`, the TGI was greater than 100 µM.

`Cc1ccc2c(c1)C(c1cccc3ccccc13)OC2=O` (centres undefined) returned a TGI greater than 100 µM.

On to `COc1ccc(C(=O)N2c3ccccc3Sc3ccccc32)c(C(F)(F)F)c1`, for which the GI50 was 18.2 µM and the TGI is greater than 100 µM.

`COc1ccc(OC)c2c1C1CCC(=O)N1CN2C(C)=O` (centres undefined) gave a TGI greater than 100 µM.

Compound `Cn1c2ccccc2c2c3c(c4c5ccccc5n(C)c4c21)C(=O)c1ccccc1C3=O` yielded a TGI greater than 100 µM.

`CCN1CSC(=S)N(CC)C1` showed a TGI greater than 100 µM.

In turn, `c1cc(CNC2C3CCC(C3)C2c2c[nH]c3ccccc23)cc(CNC2C3CCC(C3)C2c2c[nH]c3ccccc23)c1` (centres undefined) displayed a TGI of 2.73 µM.

`C=C(C=O)CCCC(C)[C@@H]1CCC23CC12CCC1[C@@]2(C)CCC(OC(C)=O)C(C)(C)C2CC(OC2OC(COC(C)=O)C(O)C(O)C2O)[C@]13C` (some centres undefined) registered a TGI of 13.8 µM.

For the compound `O=C1NC2(CN3CCC2CC3)C(=O)N1CN(Cc1ccccc1)c1ccccc1` (centres undefined), the TGI is greater than 100 µM.

Take `COc1ccc(C2CC(n3nnnc3-c3ccccc3)=NN2)cc1` (centres undefined): the GI50 was 4.52 µM and the TGI was greater than 100 µM.

`C[N+](C)(C)c1ncnc2c1ncn2C1CCCCO1` (centres undefined) yielded a TGI greater than 100 µM.

`CN1C(=O)C(Cl)(C(Cl)(Cl)S(=O)(=O)O)C(=O)c2ccccc21` (centres undefined) registered a TGI greater than 100 µM.

Consider `C=C=C(C(=O)OC)S(=O)c1ccc([N+](=O)[O-])cc1[N+](=O)[O-]` (centres undefined), for which the TGI is greater than 100 µM.

The compound `COc1ccc2nc3cc(Cl)ccc3c(NCCNCCCNC(=O)c3cc(-c4ccccc4)nc4ccccc34)c2c1` showed a TGI greater than 100 µM.

Regarding `C[C@]12CC[C@@H]3c4ccc(O)cc4C(O)C[C@H]3[C@@H]1CCC2=O` (some centres undefined), the GI50 was greater than 100 µM and the TGI is greater than 100 µM.

In the case of `Cc1ccc(NC(=O)Cn2c(Br)nc3c2c(=O)n(C)c(=O)n3C)cc1`, the GI50 was 3.68 µM and the TGI is 13 µM.

Regarding `CN(C)C(=O)O[C@@H]1CN[C@@H](C#Cc2cc3ncnc(Nc4ccc(OCc5cccc(F)c5)c(Cl)c4)c3s2)C1`, the GI50 was 7 µM and the TGI was greater than 20.2 µM.

Take `O=c1ccc(=O)c2c(=O)c3ccccc3c(=O)c1=2`: the TGI was greater than 100 µM.

As for `CCN(CC)c1ccc2c(c1)Nc1cc(=C(C#N)C#N)c3ccccc3c1=N2`, the TGI is greater than 100 µM.

For the compound `CC(C)CNC(=O)Cn1c(-c2ccccc2)cc2ccccc21`, the TGI is greater than 100 µM.

The compound `CCOc1ccccc1NC(=O)CCc1nc(=S)[nH][nH]1` registered a TGI greater than 100 µM.

On to `O=C([CH-]C(=O)C(F)(F)F)c1ccccc1.O=C([CH-]C(=O)C(F)(F)F)c1ccccc1.O=C([CH-]C(=O)C(F)(F)F)c1ccccc1.O=C([CH-]C(=O)C(F)(F)F)c1ccccc1.[Eu+3].c1ccncc1`, for which the GI50 was 15.1 µM and the TGI is greater than 100 µM.

With `COC(=O)c1nc(N)[nH]c(=O)c1CCCCCc1c(C(=O)OC)nc(N)[nH]c1=O`, the TGI was greater than 50 µM.

Regarding `O=[N+]([O-])c1nccn1COCCBr`, the TGI is greater than 100 µM.

Regarding `N#CC(NNC(=O)c1ccccc1O)c1cccc(O)c1` (centres undefined), the TGI is greater than 100 µM.

Turning to `COc1cc(C2SCC(=O)N2c2ccc(Oc3ccc(Cl)cc3)c(Cl)c2)cc(OC)c1OC` (centres undefined), the TGI came out at 31.4 µM.

In the case of `Cc1cc(-c2nnc3n2CCCCC3)c(C)n1-c1ccc(Cl)c(Cl)c1`, the GI50 was 18.8 µM and the TGI stood at 37.8 µM.

`c1nnc(NCNc2nncs2)s1` gave a TGI greater than 100 µM.

Consider `C[N+]1(C)C/C(=C\c2ccncc2)C(=O)/C(=C/c2ccncc2)C1`, for which the TGI was greater than 100 µM.

`Oc1ccccc1-c1nc2c3ccccc3c3ccccc3c2[nH]1`: the GI50 is 7.57 µM and the TGI is 21.1 µM.

`NC(N)=NS(=O)(=O)c1ccc(NC(=O)c2ccc3nc4ccccc4c(Nc4ccc(S(N)(=O)=O)cc4)c3c2)cc1` returned a TGI greater than 100 µM.

Consider `CCOC(=O)C(CS)NC(=O)CCCCCCCC(=O)NC(CS)C(=O)OCC` (centres undefined), for which the TGI was greater than 100 µM.

Turning to `COc1ccc(C2C(C#N)=C(S)N(C3OC(CO)C(O)C(O)C3O)C(c3ccccc3)=C2C(C)=O)cc1` (centres undefined), the TGI was greater than 100 µM.

Take `CC[C@@]1(O)C(=O)OCc2c1cc1n(c2=O)Cc2cc3cc(N)ccc3nc2-1`: the GI50 is 0.0718 µM and 0.0304 µM.

Consider `Cc1ccc(-c2n[nH]c(=O)[nH]2)cc1[N+](=O)[O-]`, for which the TGI is greater than 100 µM.

In turn, `COc1cc(Br)c(C=Nc2cccc3ccc(OS(=O)(=O)c4cccc([N+](=O)[O-])c4)cc23)cc1OC` returned a TGI greater than 100 µM.

For the compound `O=C1c2cccc3cccc(c23)C(=O)N1CCCNOCCONCCCN1C(=O)c2cccc3cccc(c23)C1=O`, the TGI was greater than 100 µM.

As for `CC1(C)Oc2ccc(NC(=O)CCC(N)C(=O)O)cc2O1` (centres undefined), the TGI was greater than 100 µM.

For the compound `CC(C)N(C)C(=O)C12C3C4C1C1C2C3C41C#N` (centres undefined), the TGI was greater than 100 µM.

In turn, `COc1cc2c(cc1OC)-c1c3c(cc4c1[C@@H](C2)N(C)CC4)OCO3` showed a TGI of 22.9 µM.

`O=C1c2ccccc2-n2c1nc1ccccc1c2=O` displayed a TGI of 30.4 µM.

With `CCc1c(C)c(C#N)c(=S)n(C2OC(CO)C(O)C(O)C2O)c1C` (centres undefined), the TGI was greater than 100 µM.

`O=C1Nc2cccc3cc(NCC(O)CCl)cc1c23` (centres undefined) displayed a TGI greater than 100 µM.

In the case of `CN(C)CCCOCCn1c2c(c3ccccc31)CCCC2`, the TGI is greater than 100 µM.

As for `COc1ccc(-c2cn[nH]c2-c2cc(OC)c3c(c2)OCCO3)cc1`, the GI50 is 1.27 µM and the TGI was greater than 100 µM.

As for `COC(=O)c1c(-c2ccccc2)sc(-c2cccc3ccccc23)c1C(=O)OC`, the TGI was greater than 100 µM.

Turning to `NNC(=S)N1CCN(C(=S)NN)CC1`, the TGI is greater than 100 µM.

As to `CC(C)Oc1cc(O)c2c(c1)OCC=C2CCC(=O)O`, the TGI is greater than 100 µM.

As for `COc1ccc(/C=C2\C(=O)N(C(=O)Cc3ccccc3)N=C2C)cc1OC`, the TGI is greater than 100 µM.

Regarding `COc1ccc(Cl)cc1Nc1nc(C(F)(F)F)ccc1C(=O)N/N=C/c1cc(OC)c(OC)c(OC)c1`, the GI50 is 0.77 µM and the TGI turned out to be 4.84 µM.

Take `CC(=O)Nc1ccc(S(=O)(=O)NNC(=O)c2cccnc2Nc2ccc(Cl)cc2)cc1`: the GI50 was greater than 100 µM and the TGI was greater than 100 µM.

In turn, `O=c1[nH]c(Nc2cccc(Cl)c2)nc2nc[nH]c12` yielded a TGI greater than 100 µM.

Turning to `O=C1CCCN1CC#CCN1CCCC1`, the GI50 is greater than 100 µM and the TGI was greater than 100 µM.

On to `COC(=O)C1(Cc2ccccc2)Cc2ccccc2C1`, for which the TGI is greater than 100 µM.

For the compound `COc1c(C)c(OC)c2c(c1O)[C@@H]1[C@@H]3Cc4c(OC)c(C)c(OC)c(O)c4[C@H](CNC(=O)c4cnc5ccccc5n4)N3[C@@H](C#N)[C@H](C2)N1C`, the TGI was found to be 0.0325 µM.

With `N.N.N.N.N.N.O=N[O-].[Br-].[Co+3].[Co+3].[OH3+].[OH3+]`, the GI50 is greater than 100 µM and the TGI is greater than 100 µM.

Compound `O=C(OC[C@H]1O[C@@H](OC(=O)c2cc(O)c(O)c(O)c2)[C@H](OC(=O)c2cc(O)c(O)c(O)c2)[C@@H](OC(=O)c2cc(O)c(O)c(O)c2)[C@@H]1OC(=O)c1cc(O)c(O)c(O)c1)c1cc(O)c(O)c(O)c1` gave a TGI of 54.5 µM.

Take `COc1cc(S(=O)(=O)Nc2ccc(-c3csc(N4C(=O)CSC4c4ccccc4)n3)cc2)ccc1Cl` (centres undefined): the TGI is greater than 100 µM.

As for `COc1cc(/C=N/Nc2nnc3c4ccccc4c4ncccc4c3n2)cc(OC)c1OC`, the TGI was greater than 10 µM.
